Reference: PubChem BioAssay AID651820 (National Center for Advancing Translational Sciences (NCATS), 2012)
Hit rate of the full screen: of about 340,000 compounds, about 12,000 (3.5%) were called active. The inconclusive results got no clear call from the source; some entries with a clear call stand among them for comparison. Calls follow the shape of the dose curve; as a rule, active = well fitted inhibition curve with a large enough effect; inconclusive = small, poorly fitted or top-dose-only effect, or another doubt; inactive = no such curve, though single readings can be large or run the other way. Potencies of inconclusive entries are left out as doubtful fits.

Assay: qHTS Assay for Inhibitors of Hepatitis C Virus (HCV)
Details: Huh7.5.1 HCVcc-Cre (HCVcc is cell-culture hepatitis C virus) infection, luciferase reporter, 44 h; series mostly up to 41.8 µM
In short: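 Compounds are dispensed onto cells plated 4 h earlier at 1,000 per well, with HCVcc-Cre virus (about 0.5 moi) added next. Following 44 h of culture, luminescent signal is measured for 15 sec after 15 min with substrate at room temperature.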
Potency is read from the fitted curve at half-maximal effect; tags tell the direction and shape of the fitted curve.

SMILES | Potency
Cc1ccc(C)c(NS(=O)(=O)c2cc(C(=O)Nc3ccccc3-c3ccccc3)ccc2Cl)c1 | inconclusive [inhibitor, partial curve]
Cc1ccc(N2C(=O)N(CC(=O)NCc3ccccc3Cl)C(=O)C2C)cc1 (stereo unspecified) | inconclusive [inhibitor, partial curve]
CC1CCN(c2ncnc3c2cnn3-c2ccccc2)CC1 | inactive
CCn1c(=O)c(C(=O)CN(C)CC(=O)Nc2cccc(F)c2)c(N)n(Cc2ccccc2)c1=O | inconclusive [inhibitor, single point]
CCn1c(COc2ccc(Cl)cc2)nnc1SC1CCc2ccccc2C1=O (stereo unspecified) | inconclusive [inhibitor, single point]
O=C(c1ccco1)N1CCN(c2ncnc3c2[nH]c2ccc(Br)cc23)CC1 | active: 11.2 µM
Cc1cc(NCC2CCCO2)n2c(nc3ccccc32)c1C#N (stereo unspecified) | inactive
COc1cc(C(=O)OCC(=O)N2c3ccccc3NC(=O)C2(C)C)ccc1OCC(C)C | active: 6.31 µM
O=C(NCCCN1CCOCC1)c1ccc2c(=O)n(Cc3ccc(Cl)cc3)c(=S)[nH]c2c1 | inconclusive [inhibitor, partial curve]
O=S(=O)(c1ccc2[nH]c3c(c2c1)CCCC3)N1CCCCC1 | inconclusive [inhibitor, single point]
CC(=O)Nc1ccc(NC(=O)COc2ccc(-c3ccc(C#N)cc3)cc2)cc1 | inactive
Cc1cccc(NS(=O)(=O)c2cc3c4c(c2)CCN4C(=O)CC3)c1C | inconclusive [inhibitor, single point]
Cc1cc(=O)oc2c(C)c(OCC(=O)N3CCN(c4ccccc4)CC3)ccc12 | inconclusive [inhibitor, single point]
COC(=O)c1cccc2c1-c1ccccc1/C2=N\NC(N)=O | inconclusive [inhibitor, single point]
Cn1c(=O)[nH]c(=O)c2c1nc(SCC(=O)O)n2Cc1ccccc1 | inactive
Cc1cc(C)cc(N(CC(=O)NCCSc2ccccn2)S(=O)(=O)c2ccccc2)c1 | inconclusive [inhibitor, single point]
CCn1c(=O)c2cc(C(=O)N3CCOCC3)sc2c2ccccc21 | inconclusive [inhibitor, partial curve]
CC(=O)c1c(C)[nH]c(C(=O)Nc2nc(-c3ccc(-c4ccccc4)cc3)cs2)c1C | inconclusive [inhibitor, partial curve, poor fit]
CCCCC[C@H]1CN(Cc2ccc(OC)cc2)C(=O)[C@@H]1CC(=O)NCc1ccccc1 | inconclusive [inhibitor, single point]
Cc1ccc(OCc2nc(-c3cccs3)no2)c([N+](=O)[O-])c1 | inconclusive [inhibitor, partial curve, poor fit]
CCOC(=O)/C(=C\c1ccc([N+](=O)[O-])o1)NC(=O)c1ccccc1 | inconclusive [inhibitor, single point]

SMILES | Potency
CCc1ccc(CNC(=O)C2CCN(S(=O)(=O)N3CC(C)CC(C)C3)CC2)cc1 (stereo unspecified) | inconclusive [inhibitor, single point]
CS(=O)(=O)N(CC(=O)Nc1ccc2c(c1)OCO2)Cc1ccccc1 | inactive
Cc1ccc(C(=O)OCC(=O)Nc2ccc3c(c2)OCO3)c(O)c1 | inconclusive [inhibitor, single point]
O=C(CN1C(=O)C2CC=CCC2C1=O)Nc1nc(-c2ccc(F)c(F)c2)cs1 (stereo unspecified) | active: 10 µM
Cc1cccc(C)c1NC(=S)NC(C)CCc1ccccc1 (stereo unspecified) | inconclusive [inhibitor, single point]
CCN(CC)CCn1c2ccccc2c2nc3ccc([N+](=O)[O-])cc3cc21 | inconclusive [inhibitor, full curve, poor fit]
S=C(N=Nc1ccccc1)NNc1ccccc1 | inconclusive [inhibitor, partial curve, poor fit]
CCOc1cc(NC(=O)c2ccccc2[N+](=O)[O-])c(OCC)cc1NC(=O)CC(C)C | inconclusive [inhibitor, partial curve, poor fit]
O=c1[nH]c(Cc2ccccn2)nc2scc(-c3ccccc3Cl)c12 | inconclusive [inhibitor, single point]
O=C(CCl)NC(=O)NC12CC3CC(CC(C3)C1)C2 | inactive
Cc1nc(C(=O)Nc2ccccc2)sc1C1(C)CC(c2cccc([N+](=O)[O-])c2)=NO1 (stereo unspecified) | inconclusive [inhibitor, full curve]
CCN(CC)S(=O)(=O)c1ccc(N2CCCC2)c(NC(=O)c2ccc(N3CCCC3=O)cc2)c1 | inconclusive [inhibitor, partial curve]
NC(=O)c1sc2nc(-c3ccccc3)c3c(c2c1N)CCCC3 | inactive
Cc1c(NC(=O)c2ccc(N3CCCC3)c([N+](=O)[O-])c2)cccc1-c1nc2ccccc2s1 | inconclusive [inhibitor, partial curve]
CC1(C)Cc2c(C#N)c(SCC(=O)c3ccccc3)nc(N3CCOCC3)c2CO1 | inconclusive [inhibitor, partial curve]
COc1cc(/C=C/c2nc3ccccc3c(=O)[nH]2)cc(Cl)c1O | inactive
Fc1cccc(/C=N/Nc2cc(N3CCOCC3)ncn2)c1 | inconclusive [inhibitor, single point]
Cc1ccc(OCc2cc(C(=O)NC(C)Cc3cccc(C)n3)no2)cn1 (stereo unspecified) | inconclusive [inhibitor, partial curve]
O=S(=O)(/C=C/c1ccccc1)N1CCN(c2ccc(F)cc2)CC1 | inconclusive [inhibitor, single point]
Cc1cccc(Nc2nc(NCCCN3CCOCC3)nc(N)c2[N+](=O)[O-])c1 | inconclusive [inhibitor, single point]
